# Laboratory results as given in PubChem BioAssay AID686978 (National Center for Advancing Translational Sciences (NCATS), 2013).
# In all, about 420,000 compounds went through this assay and about 64,000 (15%) were called active. The shares of active, inactive and inconclusive entries below differ from those in the screen. Calls follow the shape of the dose curve; as a rule, active = well fitted inhibition curve with a large enough effect; inconclusive = small, poorly fitted or top-dose-only effect; inactive = flat fitted curve, though single readings scatter. Potencies of inconclusive entries are left out as doubtful fits.
# Assay: qHTS for Inhibitors of human tyrosyl-DNA phosphodiesterase 1 (TDP1): qHTS in cells in absence of CPT; also: nearly all actives have a fitted effect of over 55% in size
# Conditions: DT40 Tdp1-/- hTDP1 cells, no CPT, ATP luminescence, 48 h; activity change, negative = growth inhibition: at 46.2 µM (top of the series) unless noted
# In short: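 Growth kinetics read by CellTiter-Glo luminescence after ≥48 hr at 37 °C. Cells: DT40 Tdp1-/- stably carrying human TDP1, 400 per well, compound exposure in the absence of CPT (DMSO vehicle).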
# % is scaled to controls: 0 for no effect and ±100 for the full control effect; potency is read from the fitted curve at half-maximal effect; tags tell the direction and shape of the fitted curve.
Structure (SMILES),Potency,"activity change, negative = growth inhibition"
O=C(Nc1nc(-c2cc(F)ccc2F)cs1)C1=COCCO1,"inconclusive [inhibitor, single point]",–
FC(F)(F)c1ccccc1-c1ccc2ncnc(NCCN3CCOCC3)c2c1,"inconclusive [inhibitor, single point]",–
Cc1sc2nc(CN3CCOCC3)[nH]c(=S)c2c1C,"inconclusive [inhibitor, single point]",–
Cn1c(=O)c2sccc2n2c(CCCC(=O)Nc3ccc(Cl)cc3)nnc12,"inconclusive [inhibitor, single point]",–
CCCCNC(=S)N(CCCO)Cc1cc2cc3c(cc2[nH]c1=O)OCCO3,"inconclusive [inhibitor, single point]",–
CCOC(=O)c1c(NC(=S)Nc2ccc(OC)cc2)sc2c1CCC2,–,inactive: -6.38%
CC1(C(=O)NS(=O)(=O)c2ccccc2Cl)CCN1C(=O)CCc1cccs1 (centres undefined),–,inactive: 0.376%
COc1ccc(S(=O)(=O)N2CCCCC2)cc1N(C)S(=O)(=O)c1ccccc1,"inconclusive [inhibitor, single point]",–
CC(c1nc2ccccc2c(=O)[nH]1)N(C)c1ccc2ccccc2c1 (centres undefined),"inconclusive [inhibitor, single point]",–
CC(C)(C)c1ccc(/C=N/NC(=S)NC2CCCCC2)cc1,active: 11.6 µM,–
O=C(O)CCCC(=O)N1CCOCCOCCOCCOCC1,–,inactive: 8.46%
Cc1c(C=O)c2ccccn2c1C(=O)c1ccc(F)cc1,–,inactive: -25.7%
COc1cc(C#CC#CCN2CCCCC2)ccc1O,"inconclusive [inhibitor, single point]",–
C(#Cc1ccc(C#CCN2CCCC2)cc1)CN1CCCC1,active: 20.6 µM,–
COc1ccc(C(=O)NNC(=O)C23CC4CC(CC(C4)C2)C3)c(OC)c1,"inconclusive [inhibitor, single point]",–
O[C@@H]1CN(CC2CCCCC2)[C@@H](c2ccccc2)C[C@H]1n1cc(-c2ccc(F)cc2)nn1,"inconclusive [inhibitor, single point]",–
O=C(c1ccc(CS(=O)(=O)c2cccc(C(F)(F)F)c2)o1)N1CCN(c2ccccn2)CC1,"inconclusive [inhibitor, partial curve]",–
CCN(CCC(=O)Nc1cc([N+](=O)[O-])ccc1OC)Cc1ccccc1,"inconclusive [inhibitor, partial curve]",–
O=C(Cc1ccc(Oc2ccccc2)cc1)NO,"inconclusive [inhibitor, single point]",–
O=C(O)CC1(CC(=O)Nc2cccc(C(=O)O)c2)CCCC1,–,inactive: 5.44%
CCOc1ccc2nc(NC(=O)C3CCCN(S(=O)(=O)c4cccc5nonc45)C3)sc2c1 (centres undefined),active: 16.4 µM,–
O=C(CCc1nc(-c2ccc(F)cc2)no1)Nc1cccc(C(=O)NC2CC2)c1,active: 16.4 µM,–
CCCCCCCCN1C(=O)[C@H](CC(=O)NCCC(C)C)C[C@@]2(C(=O)OC)CCCCC=C12,active: 16.4 µM,–
O=C(C1=C[C@H](c2ccc3c(c2)OCO3)C[C@H](OCCCCO)O1)N1CCN(Cc2ccc3c(c2)OCO3)CC1,active: 18.4 µM,–
COc1cc(OC)cc(C(=O)N[C@H](C(=O)Nc2ccc(F)cc2F)C(C)C)c1,–,inconclusive: -34.3% [inhibitor]

Structure (SMILES),Potency,"activity change, negative = growth inhibition"
O=C(Nc1ccccc1Cl)c1ccc(F)c(S(=O)(=O)NCc2ccc(Cl)c(Cl)c2)c1,"inconclusive [inhibitor, single point]",–
CCN(CC)S(=O)(=O)c1ccc(N2CCOCC2)c(NC(=O)Cc2ccccc2F)c1,active: 14.6 µM,–
COc1ccc(CN2CCCN(CC(=O)Nc3cc(C)ccc3C)S2(=O)=O)cc1,active: 20.6 µM,–
COc1ccc(NC(=O)N2CCCC3(CCN(C(=O)c4cccn4C)CC3)C2)cc1,–,inactive: -1.94%
COc1ccccc1CCc1nc2ccccc2n1C1CCN(C(=O)c2cn3ccsc3n2)CC1,–,inactive: -7.61%
CCOC(=O)c1sc2nc3n(c(=O)c2c1C)CCC(C)CC3 (centres undefined),"inconclusive [inhibitor, single point]",–
CC(=O)N1CCCc2cc(S(=O)(=O)N(CCN(C)C)Cc3ccccc3)ccc21,–,inactive: -16.4%
CCc1nnc(NC(=O)CSc2ccc(-c3nc4ccc(C)cc4[nH]3)cn2)s1,"inconclusive [inhibitor, single point]",–
COc1cc(C#Cc2c(-c3cncn3C)n(C)c3ccc(-c4cnc(OC)nc4)cc23)cc(OC)c1,"inconclusive [inhibitor, single point]",–
CCOC(=O)c1c(NC(=S)Nc2cccnc2)sc(C)c1C,–,inactive: -9.17%
CCCN(C(=O)c1cc(C)ccc1C)c1c(N)n(Cc2ccccc2)c(=O)[nH]c1=O,–,inactive: -3.66%
Cc1cccc(C(O)c2ncc(-c3ccc4ccccc4c3)[nH]2)c1C (centres undefined),"inconclusive [inhibitor, partial curve]",–
CCOC(=O)c1c(C)oc2nc(C)nc(Nc3cc(C)cc(C)c3)c12,–,inactive: 0.3%
Cc1ccc(C)c(OCC(=O)Nc2ccc(N3CCOCC3)cc2N2CCOCC2)c1,"inconclusive [inhibitor, partial curve]",–
O=[N+]([O-])c1c(N2CCN(CCO)CC2)nc2ccccn12,–,inactive: -10.8%
CS(=O)(=O)Nc1cc(C(=O)N2CCNC(=O)C2)c2c(c1)ncn2CCc1ccccc1,–,inactive: -14.6%
CCc1cccc(C)c1NC(=O)c1cc(S(=O)(=O)N(C)Cc2ccccc2)ccc1F,active: 8.2 µM,–
COc1ccc(-c2cc(OC(=O)c3ccccc3C)c3c(C)oc(C)c3c(=O)c2)cc1,active: 16.4 µM,–
Cc1ccc(-n2ncc3c(N4CCCCC4)ncnc32)cc1Cl,"inconclusive [inhibitor, single point]",–
CC1CC(C)CN(C(=O)COC(=O)c2ccc([N+](=O)[O-])o2)C1 (centres undefined),"inconclusive [inhibitor, single point]",–
COc1ccc(Nc2nc(N)c(C(=O)c3ccc(OC)cc3)s2)cc1,active: 1.64 µM,–
CC1Cc2ccccc2N1C(=O)C1CCN(S(=O)(=O)Cc2ccccc2)CC1 (centres undefined),"inconclusive [inhibitor, partial curve]",–
Cc1ccc2cccc(OCC(=O)NCc3ccco3)c2n1,–,inactive: -12.7%
CC1(C(=O)Nc2ccc3c(c2)OCO3)Cc2c(-c3ccc4c(c3)OCO4)ccnc2O1 (centres undefined),active: 2.31 µM,–
COc1cc2cc(C(c3nnnn3C3CCCCC3)N(C)C3CCCCC3)c(=O)[nH]c2cc1OC (centres undefined),"inconclusive [inhibitor, single point]",–

Structure (SMILES),Potency,"activity change, negative = growth inhibition"
COc1ccc(NC(=O)c2cn(C)c(=O)c3cc(OC)c(OC)cc23)c(OC)c1,"inconclusive [inhibitor, partial curve, poor fit]",–
COc1cc(CNCCN(C)C)c(Br)cc1OC1CCCC1,"inconclusive [inhibitor, single point]",–
CCOC(=O)c1c(NC(=O)COC(=O)CNC(=O)c2ccc(Cl)cc2Cl)sc(C(=O)N(C)C)c1C,–,inactive: -4.54%
COC(=O)c1ccc2[nH]ccc2c1,"inconclusive [inhibitor, single point]",–
O=C(CNC(=O)c1cc(S(=O)(=O)N2CCOCC2)ccc1N1CCCC1)Nc1ccc(F)c(F)c1,–,inconclusive: -31.9% [inhibitor]
CCC(NC(=O)CCC(=O)N1CCN(S(=O)(=O)c2ccc(C)cc2)CC1)c1ccc(C)cc1 (centres undefined),"inconclusive [inhibitor, single point]",–
C/C(=N\O)C(C)(C)Nc1ccc(Cl)cc1,–,inactive: -23.7%
CC(SCc1ccccc1)C(=O)N/N=C/c1ccc2c(c1)OCO2 (centres undefined),–,inactive: -16.7%
CC(C=NNC(=O)C(=O)NN=CC(C)=Cc1ccccc1)=Cc1ccccc1,–,inactive: -28.4%
Cc1ccc2c(c1)c1c(n2CC(O)CN2CCCCC2C)CCCC1 (centres undefined),"inconclusive [inhibitor, single point]",–
COCCn1c(=NC(=O)/C=C/c2ccccc2)sc2cc(NC(C)=O)ccc21,"inconclusive [inhibitor, single point]",–
CNC(=S)N(C)[C@H]1c2c(ccc3ccccc23)OC[C@H]1CO,"inconclusive [inhibitor, single point]",–
O=C(CSc1nc2ccccc2n1Cc1ccc(F)cc1)N1CCN(c2ccc(F)cc2)CC1,"inconclusive [inhibitor, partial curve]",–
CCn1c(SCC(=O)NC(C)(C)C)nnc1-c1ccncc1,–,inactive: 9.34%
COc1cccc(NC(=O)c2nnn(CCc3ccccc3)c2N)c1,"inconclusive [inhibitor, partial curve, poor fit]",–
CCCCNC(=O)c1cn(CC)c2ccc(S(=O)(=O)N3CCCC3)cc2c1=O,–,inactive: -14.2%
COc1ccc(CN(C)C(=O)CCN(c2ccccc2)S(=O)(=O)c2ccc(C)cc2)c(OC)c1,active: 23.1 µM,–
CNc1cc(-c2ccccc2CN(C)C)ncn1,–,inactive: -9.12%
O=C(O)c1ccc2c(c1)C(=O)N(N1C(=O)c3ccccc3C1=O)C2=O,–,inactive: -17.3%
CC1(C)Cc2c(sc3ncnc(NN)c23)CO1,"inconclusive [inhibitor, single point]",–
O=P(O)(CCc1ccccn1)CN1CCCCC1,–,inconclusive: -25.4% [inhibitor]
Nc1ccc(C(=O)Nc2ccc(Nc3ccncc3)cc2)cc1,active: 29.1 µM,–
O=C(CSc1nnc(SCc2ccc(Cl)cc2)s1)N/N=C/c1ccccc1Cl,"inconclusive [inhibitor, partial curve, poor fit]",–
COc1ccc(C)cc1NC(=O)c1cc(S(=O)(=O)N2CCC3(CC2)OCCO3)ccc1F,–,inactive: -26.7%
